Test results reported in PubChem BioAssay AID2202238 (Ras Initiative Chemistry Research Team, Frederick National …, 2025).
This is one part of the list. Further columns of the screen follow, without active or inactive calls.

Biological target: GTPase KRas (Homo sapiens) (UniProt P01116)
Experiment: Fragment capture on engineered cysteines, share of protein labelled (AID 2202238)
Design: protein at 5 µM with 500 µM competing thiol for 1.5 h
Conditions: KRAS G12D cysteine mutants, disulfide tethering, MALDI-TOF labeling, stronger effect = higher value, fragment at 500 µM
[1] = measured here: G60C mutant labeling
[2] = measured here: G75C mutant labeling
[3] = measured here: H94C mutant labeling
[4] = measured here: I36C mutant labeling
[5] = measured here: L120C mutant labeling
[6] = measured here: M67C mutant labeling
[7] = measured here: M72C mutant labeling
[8] = measured here: N26C mutant labeling
[9] = measured here: N86C mutant labeling
[10] = measured here: P121C mutant labeling
[11] = measured here: S122C mutant labeling
[12] = measured here: S136C mutant labeling

UniProt P01116, sequence (P01116 whole entry, looked up, the tested form may be a part): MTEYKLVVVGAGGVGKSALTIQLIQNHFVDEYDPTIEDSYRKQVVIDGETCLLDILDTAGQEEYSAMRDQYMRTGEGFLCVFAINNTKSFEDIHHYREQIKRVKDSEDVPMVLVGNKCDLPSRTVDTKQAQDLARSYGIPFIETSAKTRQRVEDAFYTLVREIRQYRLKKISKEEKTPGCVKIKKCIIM

Row | SMILES | percent labeling [1] [%] | percent labeling [2] [%] | percent labeling [3] [%] | percent labeling [4] [%] | percent labeling [5] [%] | percent labeling [6] [%] | percent labeling [7] [%] | percent labeling [8] [%] | percent labeling [9] [%] | percent labeling [10] [%] | percent labeling [11] [%] | percent labeling [12] [%]
1 | COc1cccc(Br)c1C(=O)NCCS | 56.9 | 23 | 43.7 | 28.6 | 43.9 | 40.1 | 47.8 | 44.1 | 43.4 | 41.5 | 34.6 | 51.4
2 | Cc1cn(C(C)(C)C(=O)NCCS)nc1C(F)(F)F | 37 | 10.3 | 26 | 17.8 | 35.8 | 25.1 | 22.6 | 30.8 | 20.4 | 24.8 | 22.9 | 33.9
3 | COc1ccc(Br)c2c1C(NC(=O)CCS)CC2 (configuration not stated) |  | 11.8 | 25.8 | 27 | 13.7 | 20.9 | 28.4 |  | 18.5 | 19.7 | 8.7 | 34.7
4 | Cn1ncc(C(F)(F)F)c1CNC(=O)CCS |  | 11.7 | 30.5 | 38.2 | 32.9 | 30.3 | 19.8 |  | 23.4 | 33.2 | 40.2 | 48.7
5 | Cc1nc2cc[nH]n2c(=O)c1CC(=O)NCCS | 26 | 15.6 | 26.7 | 29.5 | 57.3 | 25.8 | 22.3 | 36.5 | 34.4 | 26.7 | 33.4 | 41.8
6 | Cc1cc(C(=O)NCCS)c2nccc(C)c2c1 | 31.5 | 44.7 | 17.9 | 6.3 | 14.9 | 15.9 | 60.2 | 36.2 | 13 | 13.1 | 9.1 | 21.2
7 | O=C(NCCS)c1cc2ccc(F)cc2s1 | 24.1 | 10.7 | 8.3 | 13.3 | 7.8 | 4.5 | 38.3 | 24.2 | 6.7 | 8.6 | 7.9 | 10.9
8 | Cc1ccc(C)n1-c1sccc1C(=O)NCCS | 3.3 | 3.2 | 7.1 | 5 | 9.4 | 6.4 | 0 | 7.4 | 7 | 8.3 | 7.2 | 8.1
9 | CCc1nn(CC(=O)NCCS)c(=O)c2cc3sccc3n12 | 9.2 | 0 | 5.7 | 7.7 | 13.2 | 6.2 | 17.4 | 12 | 4.7 | 5.2 | 4.1 | 8.4
10 | CN(Cc1cc(F)ccc1Oc1ccc(F)cc1Cl)C(=O)CCS |  | 24.7 | 29.7 | 24.1 | 17.1 | 13.8 | 42.5 |  | 17.3 | 16.8 | 6.8 | 47
11 | Cc1nc2nc(C(F)(F)F)nn2c(C)c1CCC(=O)NCCS | 34.9 | 13.4 | 32 | 31.9 | 16.9 | 30.8 | 19.6 | 30 | 13.5 | 31.6 | 19.7 | 38
12 | O=C(NCCS)C1CCC(N2CCOCC2)CC1 (configuration not stated) | 29.9 | 12.2 | 34 | 28.5 | 32.3 | 37.7 | 11.5 | 39.2 | 25.6 | 28.3 | 26.2 | 45.5
13 | CC(=O)Nc1c(Cl)ccc(C(=O)NCCS)c1Cl | 31.8 | 11 | 35.3 | 25 | 33.6 | 34.7 | 22.6 | 39.2 | 33.4 | 41.8 | 33.1 | 45
14 | O=C(CCS)NCc1ccc(-c2cccnc2)c(F)c1 |  | 22.2 | 32.8 | 40.6 | 35.1 | 37.7 | 52.6 |  | 21.2 | 28.1 | 28.1 | 36.5
15 | O=C(Nc1cccc2c1CCCN2C(=O)CCS)NC1CCCCC1 |  | 7 | 13.8 | 9.8 | 10.5 | 15.9 | 17.7 |  | 14.1 | 12.3 | 9.2 | 30.6
16 | O=C(CCS)Nc1ccc(Cl)cc1-c1nn[nH]n1 |  | 39.8 | 44.2 | 36.5 | 50.8 | 36.4 | 77.1 |  | 42.4 | 42.1 | 54.8 | 50.4
17 | O=C(CCS)Nc1ccc(-c2n[nH]c3c2CCCC3)cc1 |  | 6.3 | 17.8 | 34 | 15.7 | 12.7 | 69.7 |  | 14.3 | 11.9 | 9.4 | 26
18 | O=C(CCS)Nc1cccnc1OCC(F)(F)F |  | 9.5 | 41.4 | 23.4 | 26.2 | 29.3 | 16.1 |  | 14.6 | 23.6 | 29.8 | 52.1
19 | Cn1cc(N2CC(C(=O)NCCS)CC2=O)cn1 (configuration not stated) | 22.3 | 10.8 | 27.5 | 23.3 | 37.1 | 27.9 | 12.4 | 35.9 | 24.4 | 30.2 | 28.3 | 35.7
20 | CCCC(CC1CCCCC1)C(=O)NCCS (configuration not stated) | 39.7 | 14 | 11 | 8.3 | 14.5 | 13.9 | 24.9 | 27.5 | 2.9 | 13.2 | 9.2 | 22.3
21 | Cn1c(C2CC2)nn(CC(=O)NCCS)c1=O | 19.1 | 8.4 | 24.9 | 23.8 | 39.9 | 25.8 | 19.9 | 27.3 | 18.8 | 30.3 | 28.7 | 47
22 | CN(C)C1(C(=O)NCCS)CCOc2ccccc21 (configuration not stated) | 58.2 | 20.4 | 28.5 | 20.3 | 26 | 29.8 | 39.2 | 35.2 | 23.7 | 21.9 | 20.5 | 60.5
23 | Cc1ncc(CNC(=O)CCS)n1-c1ccccc1 |  | 38.4 | 29.3 | 43.3 | 31 | 37.4 | 15.2 |  | 8.8 | 31.6 | 28.7 | 56.5

Row | SMILES | percent labeling [1] [%] | percent labeling [2] [%] | percent labeling [3] [%] | percent labeling [4] [%] | percent labeling [5] [%] | percent labeling [6] [%] | percent labeling [7] [%] | percent labeling [8] [%] | percent labeling [9] [%] | percent labeling [10] [%] | percent labeling [11] [%] | percent labeling [12] [%]
24 | O=C(CC1c2ccccc2Oc2ccccc21)NCCS | 42.4 | 14 | 15.7 | 11.9 | 19.1 | 11.9 | 42.6 | 22.6 | 11.9 | 29.9 | 8.7 | 13.8
25 | O=C(CCS)N(Cc1ccco1)Cc1ccco1 |  | 10 | 24.9 | 18 | 22.9 | 20 | 26.4 |  | 18.9 | 16.6 | 18.7 | 49
26 | O=C(CCS)N1CCC(c2nc(-c3ccncc3)cs2)CC1 |  | 18.7 | 25.9 | 21.7 | 25.4 | 37.7 | 40.9 |  | 18.1 | 23 | 17.5 | 35.5
27 | COCCc1noc(CC2CCN(C(=O)CCS)CC2)n1 |  | 9.5 | 32.6 | 34.8 | 30.4 | 35.7 | 14.4 |  | 18.8 | 31 | 34.9 | 57.3
28 | Cc1csc(CC2CCCN2C(=O)CCS)n1 (configuration not stated) |  | 16.1 | 41.4 | 37.1 | 33.6 | 44.7 | 29.7 |  | 28.9 | 30.8 | 34.3 | 66
29 | O=C(CCS)NCCC1(O)C(=O)Nc2ccccc21 (configuration not stated) |  | 11 | 35.8 | 42.1 | 41.2 | 44.1 | 19.4 |  | 26.1 | 33.7 | 37.6 | 59.9
30 | O=C(CCS)N1CCC(COc2ccc(C(F)(F)F)cn2)CC1 |  | 13.8 | 18.8 | 14.3 | 15.6 | 18.6 | 27.3 |  | 15.3 | 15.6 | 11.3 | 29.5
31 | O=C(CCS)NCC(=O)N1CCOc2ccccc21 |  | 11.8 | 33.9 | 29.8 | 49.2 | 36.1 | 33.3 |  | 20.9 | 38 | 40.2 | 61.4
32 | O=C(CCS)NC1CCN(c2ccc(Cl)c(Cl)c2)C1=O (configuration not stated) |  | 4.8 | 13.6 | 15 | 14 | 25.4 | 22.4 |  | 14.9 | 10.8 | 7.4 | 23.4
33 | O=C(CCS)Nc1nc2ccc3scnc3c2s1 |  | 4.8 | 5.5 | 11.8 | 11.2 | 11.6 | 21.9 |  | 3.4 | 7.2 | 6.5 | 9.9
34 | CC1Oc2c(cccc2C(=O)NCCS)NC1=O (configuration not stated) | 33 | 26 | 49 | 19.2 | 33.6 | 36.2 | 65.3 | 41.6 | 22.9 | 21.6 | 22.4 | 53.1
35 | O=C(NCCS)C1COc2ccc(F)cc2C1 (configuration not stated) | 31.8 | 11.2 | 15.4 | 10.4 | 20.7 | 13.4 | 25.3 | 27.1 | 13.1 | 15.7 | 11.9 | 21.1
36 | O=C(NCCS)c1nnn(-c2cccc(Br)c2)c1C(F)(F)F | 16.7 | 16.8 | 6.8 | 4 | 7.3 | 5.6 | 50.3 | 18.2 | 5.1 | 6.8 | 4.1 | 5.9
37 | COc1cccc(-c2nc(C(=O)NCCS)c(C)[nH]2)c1 | 38.6 | 21.4 | 30.5 | 7.5 | 44.8 | 14.4 | 32.5 | 43.2 | 15.1 | 34 | 11.8 | 25.9
38 | O=C(Cc1cc2[nH]cnc2cc1Br)NCCS | 63.9 | 36.1 | 40.7 | 38 | 55.3 | 43.5 | 62.7 | 48.2 | 47.1 | 36.3 | 29.2 | 48.7
39 | O=C(NCCS)c1coc(C#Cc2ccccc2)c1 | 17.4 | 6.6 | 12 | 8.4 | 15.7 | 9.7 | 30.4 | 8.8 | 9.3 | 11.4 | 9.3 | 12
40 | Cc1c(C(=O)NCCS)nnn1-c1ccc2c(c1)OCCO2 | 28.2 | 16.4 | 20 | 12.4 | 16.7 | 13.4 | 46.8 | 30.6 | 12.7 | 18.2 | 12.3 | 16.3
41 | Cc1nc(C(=O)NCCS)nn1-c1ccc(Cl)cc1 | 17.2 | 11.3 | 14.6 | 10.5 | 22.1 | 11.9 | 20.2 | 30 | 15.3 | 14.1 | 10 | 15.7
42 | Cc1ccc(N2CCCC2)cc1NC(=O)CCS |  | 0 | 6 | 7.8 | 3.6 | 1.8 | 3.6 |  | 0 | 2.2 | 7.6 | 10
43 | Cc1cc(C)nc(-n2[nH]c(C(=O)NCCS)c(CCO)c2=O)n1 | 9 | 0 | 8 | 6.8 | 23.3 | 9 | 0 | 17.3 | 4.5 | 11.8 | 16.3 | 18.9
44 | Cn1c(=O)n(C)c2cc(C(=O)NCCS)c(Br)cc21 | 44.8 | 17.5 | 28.4 | 23.9 | 23.4 | 28.1 | 53.3 | 57.8 | 21.6 | 18.4 | 15.2 | 44.1
45 | CN(C)C(C(=O)NCCS)c1cc(Br)cs1 (configuration not stated) | 57.9 | 29.6 | 44.1 | 30.1 | 50.5 | 44.6 | 29.3 | 45.5 | 26.8 | 28.9 | 26 | 53.3
46 | Cc1nn(C2CCS(=O)(=O)C2)c(C)c1NC(=O)CCS (configuration not stated) |  | 8.7 | 39.1 | 39.3 | 31.7 | 42.9 | 16.8 |  | 21.5 | 34.5 | 31 | 49.9
